Test results: ChEMBL document CHEMBL5308541, “MAIP: An Open-Source Tool to Enrich High-Throughput Screening Output and Identify Novel, Druglike Molecules with Antimalarial Activity” (ACS Med Chem Lett, 2023)
Hit rate of the full screen: of about 150,000 compounds, about 540 (0.36%) showed an effect of 50% or more. The list shows a part of the results.

system: Plasmodium falciparum; assay: Primary screen in NF54 nanoGlo assay, in single point, at 2uM, 72h; a lower Z score goes with more inhibition; format: functional, Erythrocyte; conditions: timepoint 72 hour

| Structure (SMILES) | % Inhibition [%] | Z score |
| --- | --- | --- |
| CC(=O)NC(C)(C)c1noc(-c2cnn(-c3ccc(Br)cc3)c2)n1 | -16 | 2.79 |
| Cc1ccc(-c2cc(C(=O)N3CC4CCC3CN(C3CCOCC3)C4)[nH]n2)cc1 (configuration not stated) | -11 | 2.46 |
| COc1ccc(C2C(C(=O)N3CCC(C)CC3)OCC(=O)N2C2CC2)cc1 (configuration not stated) | -14 | 2.94 |
| CN1CCO[C@@H](CN(Cc2ccc3c[nH]nc3c2)CC2CC2)C1 | -5 | 0.73 |
| CCNc1cc(CNc2ncnc3scc(C)c23)ccn1 | -2 | 0.33 |
| CCN(Cc1noc(C)n1)C(=O)[C@H]1CC(=O)N(CC(C)C)C1 | -7 | 1.26 |
| N#Cc1ccc(CCCN[C@H]2CCc3c(O)cccc32)cc1 | -10 | 1.58 |
| FC(F)(F)c1cn2c(n1)CCC(CNc1nccc(NC3CCCOC3)n1)C2 (configuration not stated) | 9 | -1.59 |
| CC(C)c1cc(NCCN2CCCCC2)ncn1 | 2 | -0.34 |
| COC(=O)C1CCC(Nc2cccc(CN3CCN(C)CC3)c2)CC1 (configuration not stated) | -8 | 1.26 |
| CNC(=O)c1ccnc(N[C@H]2CCCN(CC3CCCCC3)C2)c1 | 2 | -0.35 |
| FC(F)(F)c1nc(NCc2cc3ccccc3[nH]2)c2ccccc2n1 | -19 | 3.26 |
| Cc1nc2ccccc2c(O)c1CC[C@H](C)NC1CCNCC1 | -3 | 0.51 |
| Cc1cc(NC(=O)c2cnn(CCN(C)C)c2)nn1CCC#N | -1 | 0.15 |
| Clc1cccc(CN2CCCN(c3ncccc3-c3nc(C4CC4)no3)CC2)c1 | 4 | -0.8 |
| CNC(=O)c1cc(Oc2cccc(NCc3noc(-c4scnc4C)n3)c2)ccn1 | 2 | -0.29 |
| CC1CC(NC2CC3CCC(C2)N3C(=O)OC(C)(C)C)CCN1C (configuration not stated) | -10 | 1.73 |
| COCCN1CCC(NCc2ccc(-c3scnc3C)cc2)CC1 | 3 | -0.55 |
| O=C(N[C@H]1CC[C@H](O)CC1)c1cccc(-c2ccnc3ccccc23)c1 | -2 | 0.24 |
| OC1CC(c2ccc(F)c(F)c2)N(c2cc(NCC3CC3)ncn2)C1 (configuration not stated) | -2 | 0.39 |
| Fc1cccc(N[C@H]2CCCN(Cc3cnc(N4CCOCC4)s3)C2)c1 | -11 | 1.9 |

| Structure (SMILES) | % Inhibition [%] | Z score |
| --- | --- | --- |
| CC(C)C[C@H](NC(=O)c1cc2ccc(Br)cc2[nH]1)C(=O)Nc1cc[nH]n1 | -1 | 0.2 |
| N#C[C@H](c1cccs1)N1CCN(C(=O)CN2CCC(N3CCCCC3)CC2)CC1 | -11 | 2.41 |
| C=C(C)COc1cc(CNc2ccc3[nH]nnc3c2)ccc1OC | 5 | -0.86 |
| Oc1cccc(C2CCN(CCN3CC4CCC3C4)CC2)c1 (configuration not stated) | -1 | 0.22 |
| CNc1nc(N[C@H]2CCCN(c3nc4ccccc4s3)C2)nc2c1CCC2 | -11 | 1.75 |
| FC(F)(F)c1nc(NC2CCN(C3CCCC3)CC2)c2nc[nH]c2n1 | -10 | 1.72 |
| Cc1nn(C)c2c(N3CCC(C(=O)NCCCN4CCC(N5CCCCC5)CC4)CC3)nccc12 | -1 | 0.11 |
| CCN1CCC[C@H](Nc2cccc(-n3ccnc3)n2)C1 | 46 | -6.91 |
| Fc1ccc2[nH]c(C3CCN(Cc4cc(-c5ccncc5)no4)CC3)nc2c1 | -1 | 0.3 |
| Cc1nc(N[C@H]2CCCN(Cc3ccccc3F)C2)c2cccnc2n1 | 1 | -0.14 |
| N#Cc1ccc2nc(N[C@H]3CCN(C(=O)C4CCCC4)C3)ccc2c1 | -6 | 1.36 |
| COc1ccc(-c2n[nH]cc2-c2c(-c3ccccc3)ncn2CCCO)cc1 | -14 | 2.94 |
| CNc1cc(N2CCC[C@H](CNCCn3cccn3)C2)ncn1 | -3 | 0.69 |
| CN1CCN(CCOc2ccccc2-c2nccn2-c2ccc3c(c2)COC3)CC1 | 0 | -0.09 |
| CCc1cc(-c2cc(-c3ccc(N4CCOCC4)cc3)nc(N)c2C#N)[nH]n1 | 7 | -1.18 |
| O=C(C1CNCC(C(=O)N2CCN(c3ccncc3)CC2)C1)N1CCOCC1 (configuration not stated) | -15 | 3.14 |
| O=C(C[C@@H](C(F)F)N1CCOCC1)NCc1ccnc2ccccc12 | 8 | -1.66 |
| Fc1cccc(N2CCCC2)c1CNc1nccc(N[C@H]2CCCOC2)n1 | -3 | 0.56 |
| CN1CCC(N2CCC[C@H]2C(=O)NCc2ccccc2-n2ccnc2)CC1 | 6 | -1.08 |
| COC1CCN(c2ccc(NC(=O)c3cccc(-c4cnc5[nH]c(=O)n(C)c5c4)c3)cc2C(F)(F)F)CC1 | -5 | 1.09 |
| O=C([C@H]1CCCN(C2CCN(c3ccnc4ccccc34)CC2)C1)N1CCCC1 | -6 | 1 |

| Structure (SMILES) | % Inhibition [%] | Z score |
| --- | --- | --- |
| CN1CCC2(CCN(C(=O)c3ccc(-c4ccc5nc[nH]c5c4)cc3)CC2)C1 | -6 | 1.22 |
| FC(F)(F)c1ccc(N2CCC(NCc3csc(-c4cnccn4)n3)CC2)nc1 | -8 | 1.42 |
| CN1CCC[C@@H]1CCNC(=O)c1ccc(-c2cc3ccccc3s2)nc1N1CCOCC1 | -5 | 0.9 |
| CC(C)Nc1ncc(-c2cc(-c3ccc(F)c(F)c3)nc(N)c2C#N)cn1 | -4 | 0.68 |
| CCN1C[C@@H](n2cnc(-c3ccccc3)c2-c2ccc3cccc(O)c3n2)CC1=O | -3 | 0.58 |
| Cc1cc2nc(-c3ccc(CNC(=O)c4cccc(N5CCOC5=O)c4)cc3)[nH]c2cc1C | -7 | 1.18 |
| COc1cc(-c2nc3sc4ccccc4n3c2NCCCOC(C)C)ccc1O | -1 | 0.14 |
| FC(F)(F)c1cc(N2CCC(Oc3cnccn3)CC2)ccn1 | 2 | -0.35 |
| O[C@H]1CCN(c2ccnc(N3CCN(Cc4cccc5[nH]ccc45)CC3)n2)C1 | 7 | -1.14 |
| Cc1ccc2c(c1)N(C[C@H](O)COc1cccc3[nH]ccc13)CCCO2 | 1 | -0.18 |
| CC(C)(C)C(=O)Cn1cc(C(=O)N2CCCc3cc(F)ccc32)nn1 | -7 | 1.07 |
| COc1ccccc1-c1noc([C@H](C)Nc2nc(-c3cccs3)nc3ccccc23)n1 | -12 | 2.08 |
| c1ccc(CCN2CCC(N3CCCN(Cc4cccs4)CC3)CC2)cc1 | 2 | -0.29 |
| CC1(C)CN(C(=O)NCc2coc3ccccc23)C[C@@]2(CCOC2)O1 | -1 | 0.22 |
| CCN(C1CCN(C(C)c2ccccc2)C1)S(=O)(=O)c1ccc(OC)c2ncccc12 (configuration not stated) | 3 | -0.56 |
| c1csc(N2CCC(NCc3ccc(OC4CCCCC4)nc3)CC2)n1 | 2 | -0.23 |
| O=C1c2cccc3cccc(c23)C(=O)N1CCc1nc2ccccc2s1 | -1 | 0.09 |
| CCN(C)c1ccnc(NCc2cc(-c3cccc(OC)c3)no2)n1 | -12 | 2.15 |
| CCCOCC(=O)N1CCCCC[C@H](Nc2cc(C)nc(-c3ccncc3)n2)C1 | -9 | 1.59 |
| N#Cc1c(NCCCN2CCN(c3ccc(F)cc3)CC2)ncnc1N1CCOCC1 | -5 | 0.87 |
| C[C@H](NC(=O)N1CCc2ncncc2C1)c1cc(F)ccc1N(C)C | 2 | -0.35 |

| Structure (SMILES) | % Inhibition [%] | Z score |
| --- | --- | --- |
| O=C(Nc1nnc[nH]1)c1cc(NCc2ccccc2)nc2ccccc12 | 11 | -2.43 |
| COc1ccc2cc(C(=O)NC3CCN(c4cc(-c5cccs5)[nH]n4)CC3)[nH]c2c1 | 0 | 0.03 |
| Cc1nc(NCCc2c[nH]c3c(C)cccc23)cc(C2CCNCC2)n1 | 13 | -2.49 |
| Cc1cc(N2CCC(NCCCN3CCCc4ccccc43)CC2)nc(N)n1 | 53 | -8.02 |
| Cn1ncnc1CCNC1CCN(c2cccc(-c3cc4ccccc4[nH]3)c2)CC1 | 16 | -2.83 |
| CC(=O)N1CCC[C@@](O)(C(=O)NCCc2ccc(Cl)c(Cl)c2)C1 | 4 | -0.63 |
| c1ccc(-c2ncn(Cc3ccco3)c2-c2ccc(-n3cncn3)cc2)cc1 | -7 | 1.13 |
| CCC(=O)N1CC[C@H](Nc2cc(C)nc3ccccc23)C1 | -8 | 1.36 |
| CC(CC1CCN(C(=O)OC(C)(C)C)CC1)NCC1(C)CCOC1 (configuration not stated) | -7 | 1.27 |
| COc1cccc(-c2cc(C(=O)N(CCC(=O)N3CCN(C4CCCC4)CC3)CC(C)C)no2)c1 | -3 | 0.61 |
| CCS(=O)(=O)c1ccc(N2CCC(NC(=O)c3cc4c(C)cc(F)cc4[nH]3)CC2)cc1 | -6 | 0.98 |
| Clc1cnc(N[C@@H]2CCOC2)nc1N[C@@H]1CCOC1 | -7 | 1.16 |
| CNc1cc(N2CCC[C@@H]2CNc2cnc(C(=O)OC(C)(C)C)cn2)ncn1 | -4 | 0.66 |
| CN(C)c1ccc(CNCc2cnc(N)nc2N)cc1 | 1 | -0.28 |
| CCOC(=O)c1csc(C2CCN(Cc3nnc(C)n3C)CC2)n1 | 6 | -0.85 |
| CN(CC1CCN(Cc2ccccc2)CC1)c1nccc2ccncc12 | 19 | -2.87 |
| Cc1cnc(C2CCN(c3ccnc(N(C)C)n3)CC2)s1 | 0 | -0.04 |
| CC1(C)Cc2n[nH]cc2CN(C(=O)NC[C@H](Cc2ccccc2)C(F)(F)F)C1 | 1 | -0.2 |
